# Experimental data as given in PubChem BioAssay AID493208 (National Center for Advancing Translational Sciences (NCATS), 2011).
# Among all 44,000 compounds or so, about 340 (0.77%) were called active. About 5% were inconclusive and are not listed. Calls come from the whole dose curve; as a rule, active = well fitted inhibition curve with a large enough effect; inconclusive = small, poorly fitted or top-dose-only effect; inactive = flat fitted curve, though single readings scatter. Some of the results follow.
# Experiment: Acumen qHTS Assay for Inhibitors of the mTORC1 Signaling Pathway in MEF (Tsc2-/-, p53-/-) Cells: Sytravon;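 note: plate controls were DMSO for no effect and rapamycin for full effect; nearly all actives have a fitted effect of over 50% in size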
# Conditions: phospho-rpS6 immunofluorescence/PI, 24 h; series mostly up to 38.3 µM; activity change, negative = inhibition: at the top concentration
# Summary of the method: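 Immunofluorescence of rpS6 phosphorylation in Tsc2-/-, p53-/- MEFs after 24 h compound exposure, normalized to propidium iodide signal. Activity is expressed as % positive cells, thresholded with 7.5 nM rapamycin.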
row,SMILES,"activity change, negative = inhibition"
1,Cc1ccc(NC(=O)c2ccc3snnc3c2)cc1C,inactive: -0.518%
2,CCOC(=O)c1ccc(NC(=O)Cn2c3ncccc3c(=O)n2-c2ccc(C)c(C)c2)cc1,inactive: 7.1%
3,Cc1cc(C)n(-c2nc(C)c(C)c(=O)n2CC(=O)Nc2cccc([N+](=O)[O-])c2)n1,inactive: -0.954%
4,COc1ccc(-c2cc(C(=O)NCCc3ccc(OC)c(OC)c3)c3c(-c4ccc(F)cc4)[nH]nc3n2)cc1,inactive: -6.15%
5,CC(=O)c1ccc(NC(=O)CC2Oc3ccc(C)cc3NC2=O)cc1 (stereo not given),inactive: 2.65%
6,CCOC(=O)Cc1c(C(=O)OCC)nnc2c(-c3ccccc3)c(C)nn12,inactive: 1.47%
7,COCCNc1oc(-c2ccc(OC)cc2)nc1C#N,inactive: 0.558%
8,CCOC(=O)c1cccc(NC(=O)N2CC=C(c3c[nH]c4ccccc34)CC2)c1,inactive: -8.86%
9,COc1ccc(OC)c(NC(=O)N2CC3CCCN3c3ccccc32)c1 (stereo not given),inactive: -3.44%
10,Cc1cc(Nc2ccc(Br)c(C)c2)n2nc(-c3ccco3)nc2n1,inactive: 13.2%
11,COc1cccc(N2CCN(c3ncnc4c3c(-c3ccccc3)cn4-c3cccc(C(F)(F)F)c3)CC2)c1,inactive: 13.2%
12,CCN(CC)C(=O)Cn1c(=O)n(CCc2ccccc2)c(=O)c2ccccc21,inactive: -0.217%
13,CCCNC(=O)N1[C@H](c2cccs2)[C@@H](C)C(=O)[C@@H](C)[C@@H]1c1cccs1,inactive: 1.29%
14,COc1ccc(S(=O)(=O)NCC(c2ccc(N(C)C)cc2)N2CCc3ccccc32)cc1F (stereo not given),inactive: -15.9%
15,CCOC(=O)c1ccccc1NC(=O)COC(=O)CC(C)(C)CC1=NS(=O)(=O)c2ccccc2N1,inactive: 2.28%
16,Cc1cc(C)n2nc(CNS(=O)(=O)c3ccccc3)nc2n1,inactive: -4.07%
17,CCOc1ccc(N(CC)S(=O)(=O)N2CCCC(C(=O)Nc3ccc(OC)c(Cl)c3)C2)cc1 (stereo not given),inactive: -19.7%
18,Cc1cccc(NC(=O)CN2C(=O)CSc3ccc(S(=O)(=O)N4CCCC4)cc32)c1C,inactive: -1.59%
19,COC(=O)CC(=O)CSc1nc2cc(C(=O)NCC(C)C)ccc2c(=O)n1CCc1ccccc1,inactive: 0%
20,O=C(Nc1ccccc1C(F)(F)F)N1CC=C(c2c[nH]c3ccccc23)CC1,inactive: -21.2%

row,SMILES,"activity change, negative = inhibition"
1,COc1ccc(-c2cc3nc(C)c(CCC(=O)NC(C)c4ccccc4)c(C)n3n2)c(OC)c1 (stereo not given),inactive: 5.21%
2,COc1ccc(-c2onc(C)c2C)cc1S(=O)(=O)N1CCN(c2cc(C)ccc2C)CC1,inactive: 1.28%
3,Cc1c(Cl)ccc2sc(N3CCN(C(=O)C4CC4)CC3)nc12,inactive: 0.877%
4,Cc1nn(C(=O)c2cccc([N+](=O)[O-])c2C)c(C)c1S(=O)(=O)N1CCCCCC1,inactive: -3.14%
5,Cc1cccc(NC(=O)N2CCC(CN3CCCCCC3)CC2)c1C,inactive: 1.2%
6,CC1CCN(S(=O)(=O)c2ccc3c(c2)CCN3C(=O)Nc2ccc(Br)cc2F)CC1,inactive: -5.45%
7,CCc1ccccc1NC(=O)Cn1nc(N2CCN(c3ccccc3OC)CC2)ccc1=O,inactive: 4.8%
8,CCOc1ccccc1C(=O)N1CCC(c2nc3ccccc3o2)CC1,inactive: -6.77%
9,COc1ccc(OC)c(NC(=O)CC(=O)Nc2ccc3nc4n(c(=O)c3c2)CCCCC4)c1,inactive: -14.3%
10,Cc1nc(SCC(=O)Nc2ccc(C(=O)O)cc2)n[nH]1,inactive: -4.71%
11,Cc1cc(C)c(OCCOCCn2c(-c3ccc(Cl)cc3)nc3ccccc3c2=O)c(C)c1,inactive: 0%
12,Cc1ccc(C2CCN(C(=O)c3cnn(-c4ccc(C)c(C)c4)c3C3CCN(C(=O)OC(C)(C)C)CC3)C2)cc1 (stereo not given),inactive: -2.32%
13,CS(=O)(=O)N(Cc1ccccc1)c1ccc(C(=O)Nc2ccc(Cl)cc2)cc1,inactive: 7.81%
14,Cc1cccc(-n2nc(C)c(C(=O)N3CCN(c4ccccc4)CC3)c2-n2cccc2)c1,inactive: 10.6%
15,COc1ccccc1C(=O)Nc1ccc(S(=O)(=O)Nc2ncccn2)cc1,inactive: -3.84%
16,Cc1cc(F)ccc1NC(=O)CCn1nc(C)c(S(=O)(=O)N2CCCCC2)c1C,inactive: 15.4%
17,Cc1ccc(C)c(N2CCN(C(=O)C(CC(C)C)NS(=O)(=O)c3ccc4nc(C)sc4c3)CC2)c1 (stereo not given),inactive: -3.85%
18,COc1ccc(Cl)cc1NC(=O)c1cc(S(=O)(=O)N(C)Cc2ccccc2)ccc1F,inactive: -5.33%
19,COc1cccc(-c2nc(SCC(=O)Nc3ccc4c(c3)OCCO4)c(-c3ccc(C)cc3)[nH]2)c1,inactive: -3.15%
20,CCOC(=O)c1cnc2c(C)cccc2c1Nc1ccc(OC(C)C)cc1,inactive: 0.457%

row,SMILES,"activity change, negative = inhibition"
1,COc1ccccc1CN(Cc1c(Cl)cccc1Cl)S(=O)(=O)c1ccc(Br)cc1,inactive: 9.65%
2,Cn1c(=O)[nH]c(=O)c2c1nc(CN1CCN(c3ccccc3F)CC1)n2Cc1ccc(F)cc1,inactive: 0.805%
3,Cc1cccc(OCCCn2c(CCNC(=O)C3CCCCC3)nc3ccccc32)c1,inactive: 7.74%
4,Cn1cc(S(=O)(=O)c2cccc(Cl)c2)c(=O)c2cc(F)c(N3CCCCC3)cc21,inactive: 0.165%
5,O=C(NCCc1ccc(Cl)cc1)c1ccc(CSCc2cccc(Cl)c2)o1,inactive: -20.3%
6,Cc1ccc(Cl)cc1NC(=O)c1oc2ccc(S(=O)(=O)N3CCCCCC3)cc2c1C,inactive: 0.339%
7,Cc1cc(C)cc(OCC(=O)N2CCC(c3nc4ccccc4s3)CC2)c1,inactive: -0.37%
8,CCc1cccc(C)c1NC(=O)CSc1nc2c(c(=O)[nH]1)CCC2,inactive: 0.778%
9,CCCN1C(=O)C(Cc2nc3ccccc3c(=O)n2-c2ccc(OC)cc2)c2cc(C)ccc21 (stereo not given),inactive: -16.2%
10,O=C(NCC(c1ccco1)S(=O)(=O)c1cccs1)c1ccc(Cl)cc1 (stereo not given),inactive: 0.232%
11,Cc1ccc2oc(=O)n(CCNC(=O)Nc3ccc(Cl)cc3)c2c1,inactive: -6.44%
12,Cc1cc(C(=O)NCc2ccccc2Cl)c2c(C)nn(-c3cccc(F)c3)c2n1,inactive: 4.98%
13,CCCN(C(=O)Nc1cn(CC(C)C)c(=O)c2ccccc12)c1ccc(F)cc1,inactive: -5.82%
14,Cc1ccc(C(=O)Nc2ccc3oc(-c4ccccc4C)nc3c2)cc1,inactive: -10.8%
15,CC(=O)N1CCc2c(sc3c2c(=O)n(-c2ccc(C)cc2)c(=O)n3Cc2ccccc2C)C1,inactive: -2.73%
16,CCCCNC(=O)c1ccc2c(c1)NC(=O)C(CS(=O)(=O)Cc1ccc(C)cc1)N2 (stereo not given),inactive: -4.79%
17,CC(C)C(=O)OCc1cc(=O)n2nc(C3CC3)sc2n1,inactive: -15.1%
18,CCN1CCN(c2oc(/C=C/c3cc(OC)c(OC)c(OC)c3)nc2C#N)CC1,inactive: -8.05%
19,CCc1ccc(C2c3c(oc4cc(C)c(C)cc4c3=O)C(=O)N2c2nc(C)c(C(=O)OC)s2)cc1 (stereo not given),inactive: 7%
20,Cc1cc(C)cc(NC(=O)CSc2nc3sc4c(c3c(=O)[nH]2)CCCC4)c1,inactive: -4.47%
